Results as given in the supplement of paper PMC3334620.
In all, about 33,000 sequences were measured (“E-score (-0.5 to 0.5)”: median about -0.021, highest 2% from about 0.32 on). The list shows a part of the results.

The sequences below were run against T1, Zap1 (UniProt P47043) (assay: PBM E-score (8-mer binding enrichment) (E-score (-0.5 to 0.5)); higher = stronger / more preferred TF binding; most listed sequences are background and not binding sites). Details: protein concentration: 200 nM; construct: GST-full length.
T1 sequence: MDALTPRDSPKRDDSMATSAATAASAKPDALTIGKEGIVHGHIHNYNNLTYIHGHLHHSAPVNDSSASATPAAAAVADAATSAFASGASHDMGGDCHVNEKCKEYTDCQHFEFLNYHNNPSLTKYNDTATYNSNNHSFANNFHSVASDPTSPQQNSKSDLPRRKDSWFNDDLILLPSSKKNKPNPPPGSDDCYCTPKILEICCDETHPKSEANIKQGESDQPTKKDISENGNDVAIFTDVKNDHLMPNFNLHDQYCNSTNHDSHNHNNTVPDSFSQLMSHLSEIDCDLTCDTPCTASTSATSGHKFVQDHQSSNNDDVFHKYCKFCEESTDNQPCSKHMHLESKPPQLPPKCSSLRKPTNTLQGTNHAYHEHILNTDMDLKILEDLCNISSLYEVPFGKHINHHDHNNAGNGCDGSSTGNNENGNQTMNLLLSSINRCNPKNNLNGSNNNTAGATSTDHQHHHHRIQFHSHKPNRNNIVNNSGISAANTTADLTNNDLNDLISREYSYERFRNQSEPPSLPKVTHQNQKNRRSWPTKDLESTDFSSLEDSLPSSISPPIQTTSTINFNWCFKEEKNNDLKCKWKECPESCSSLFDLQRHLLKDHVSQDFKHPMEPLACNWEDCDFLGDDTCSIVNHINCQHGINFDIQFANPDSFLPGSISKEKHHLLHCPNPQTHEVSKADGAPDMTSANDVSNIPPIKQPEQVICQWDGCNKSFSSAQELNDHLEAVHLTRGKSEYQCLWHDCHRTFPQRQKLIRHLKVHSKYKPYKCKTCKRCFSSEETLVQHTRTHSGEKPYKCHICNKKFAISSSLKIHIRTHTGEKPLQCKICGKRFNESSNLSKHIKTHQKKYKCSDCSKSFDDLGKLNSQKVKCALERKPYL
Method: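 Universal 'all 10-mer' protein binding microarrays (Agilent AMADID 015681) probed with GST-tagged S. cerevisiae TFs (full-length or DBD) made by in vitro transcription/translation (PURExpress), about 100-200 nM. Bound TF was detected with fluorescent anti-GST. Each ungapped 8-mer (which stands for itself and its reverse complement) is scored by the PBM enrichment score (E-score), a modified Wilcoxon-Mann-Whitney statistic from -0.5 to +0.5, computed with the Universal PBM Analysis Suite. Scale: above 0.35 generally sequence-specific binding.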

Sequence	PBM E-score
AGTGCACA	-0.0937
CAAAATGC	0.0356
AGCCTGTC	-0.221
GCTATGTA	-0.116
CCATGAGA	0.094
GTGGGATA	0.0249
ATCAGTGG	0.0702
ACATTGGG	0.0155
TACTTAGA	0.113
ATTCTACA	0.104
AAATTGGG	-0.00439
AGAGGGCC	-0.128
ACCAGGCA	-0.12
CTAACGCC	-0.117
ACGAATCC	-0.0963
TACAACCA	0.319
CTTTTATA	-0.00494
AGCTCTCC	-0.263
CCGCAGTC	-0.0761
CCTTACAG	0.221
TTGATCAA	0.0851
ACGGACGA	0.0125
CCAAGCCC	-0.226
CAGTAACA	-0.0862
GTTGCGGA	0.105

Sequence	PBM E-score
ATGTTTTA	0.171
AGCATCTG	-0.0599
TAACCTGA	0.317
AGAGAGCC	-0.245
CAATGAAC	0.00263
ACACCACG	0.0192
CAATTTTC	0.0199
AGATCCTC	-0.204
CTATCGTA	-0.034
ACCATGAG	0.0798
AGGGGGCA	-0.366
AAGAAACT	0.0227
CGATCCCA	-0.0142
ATCTGTTA	0.211
CAAAATGA	0.129
GTGGTATA	0.195
ATTATGGC	-0.0578
AACATAAT	0.142
CCTTATCC	-0.307
ACGAGCAA	-0.303
CCCCCTGA	-0.209
ACCACTGG	0.128
CGCCGAAG	-0.221
ACTGCAAT	0.0724
GCCCAGGC	-0.23

Sequence	PBM E-score
GACGCGCC	-0.209
ACTCGCGA	0.0942
AGCAGCAG	-0.0599
CGACCACA	0.0128
ACAATTCC	-0.163
ACAACGAA	0.0201
ATGCGCCC	-0.121
AGCTGGAG	-0.258
ATCGTTTA	0.141
CGTTGGGA	-0.079
TGAATAAA	0.0291
GACAGTAA	0.0265
ATGAAGGG	0.0618
GCCAGACC	-0.118
CTACGGAG	-0.123
AGGGCTTG	0.0277
CAAGCTAC	-0.114
CGGGATAG	-0.0853
CACCAATC	0.0403
CTGGCAGA	-0.11
ACGAGTCT	-0.225
CTACGTCA	-0.247
CACGTTAG	-0.177
GTCAACTA	0.084
ACAGCGGT	0.0759

Sequence	PBM E-score
GGCGTTAA	-0.0301
ATCACGGA	0.136
CCGTGTCG	-0.203
ACAGAGCC	-0.0572
ACTCGATA	0.0748
CATCGAAA	-0.0523
AATGTCGG	-0.192
CCCCTATA	-0.102
AATACGCG	-0.113
TATCATCA	0.0226
CATGTCAA	-0.192
AGTTAACT	0.00939
ATATTGGG	0.0156
CCAAAGCG	-0.0968
GAATCAGC	-0.277
AATGACCC	0.3
AGAGCGCG	-0.122
ACAGGGTG	0.199
CCCTATTA	0.101
ATCTCAAC	0.158
CAGGCCAA	-0.168
AAGTCCCT	-0.12
TCCCCTCA	0.016
GGAGAAGA	-0.247
CTTTGCTA	0.0179

Sequence	PBM E-score
CGCCGTAA	0.0717
GCGTTTAC	-0.311
AAACTCGA	-0.0479
CTGCTCGA	-0.128
TAGCCCCA	0.06
ACCATATG	0.174
AGGTCCAG	0.0253
CGCGTGCC	-0.172
CAGAAGAC	0.0367
GTGAGGCA	-0.185
CTAAGGAA	0.0278
CCCCCTCC	-0.196
ACACATGG	0.0436
ATGTGCCC	-0.181
CCTGAGTC	0.0002
GAGAACGC	-0.0996
CTCGCCAA	-0.203
GCTTAAAC	-0.0479
CCGCATAG	0.0947
ATTTGGTG	0.124
ATCACCGG	-0.0544
ATTCCGTA	-0.074
ACCATGTA	0.147
CATTACTC	0.00053
AGGAGCAG	-0.24

Sequence	PBM E-score
GTAATGAA	0.0191
AAACCATT	0.197
GATTGTCC	0.0461
GCTCACGA	-0.129
CCGCCGGA	0.00634
AACCAAGC	0.106
ATGCTGTC	-0.167
ATGCGTGA	0.0522
ACAGTTAC	0.0755
AACCACGC	0.231
CTATGGTA	0.134
ACAATATC	0.0393
CGGTCGGA	-0.0102
AGTGCGTC	-0.233
CGCGTACA	-0.0777
GACCATAA	0.287
TAAAGGAA	0.00829
CGTAGACC	-0.109
AGCGTTCG	-0.168
ATAGGGCG	-0.263
ATAAGCCA	0.0432
ACAGGTGG	-0.0999
CGCCCACA	0.134
AAGGTAGC	0.307
CCTGCACG	0.00093

Sequence	PBM E-score
ATGCTACA	-0.184
CTATTGAC	-0.0199
CGTAAGAA	-0.0668
AGAGCTGC	-0.365
GATAATCC	-0.152
AGTATAGC	-0.169
CGTCGTGA	-0.0856
ACTAACGA	-0.0161
GCCCCGCC	0.124
CCTTCATA	0.102
AGGGGACT	0.00277
GTGCGCAA	-0.0569
ACCTTTGG	0.236
GAGTTAGC	0.0462
TCCCTCGA	-0.0721
CGAACGCG	-0.124
GCAACTAA	0.234
CGTTTCGC	0.0229
AGTAAACA	0.0727
CAAGAAGC	-0.0179
AGGCCTCA	-0.0843
GTCGTCTA	-0.0759
